# Test results: the supplement of paper PMC8821664
# Structures can show the parent of a compound that is named as a salt. The list shows a part of the results. Repeats are few or missing, and single values can be far off. Non-standard residues stand in square brackets, D forms with d. Residues, ends and D or L forms follow the SMILES beside them. *: point of attachment. NHCH2CH2OH = OCCN*; For = O=C*
# Test system: Beas-2B AQP5-HiBiT reporter cells
# Assay: AQP5-HiBiT luminescence relative to vehicle (ratio to vehicle); higher = higher AQP5-HiBiT protein abundance
# Conditions: 10 µM; 18 h
# 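Note: monoclonal Beas-2B line stably carrying CMV promoter-driven AQP5-HiBiT, 5,000 cells per well in 384-well plates, lytic HiBiT plus LgBiT NanoLuc luminescence, FDA-approved drug library screen.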
row,SMILES,AQP5-HiBiT luminescence
1,CC(C)(C)NCC(O)c1cc(O)cc(O)c1 (stereo not given) [Terbutaline Sulfate],0.941
2,Cc1c(O)cccc1C(=O)N[C@@H](CSc1ccccc1)[C@H](O)CN1C[C@H]2CCCC[C@H]2C[C@H]1C(=O)NC(C)(C)C [Nelfinavir Mesylate],1.63
3,COc1ccccc1OCC(O)CO (stereo not given) [Guaifenesin],0.723
4,Cc1cn[nH]c1 [4-Methylpyrazole],0.643
5,Clc1ccc2c(c1)CCc1cccnc1C2=C1CCNCC1 [Desloratadine],1.6
6,NC[C@H](O)c1ccc(O)c(O)c1 [Noradrenaline bitartrate monohydrate],0.642
7,C[C@@H]1C/C=C/C=C/C=C/C=C/[C@H](O[C@@H]2O[C@H](C)[C@@H](O)[C@H](N)[C@@H]2O)C[C@@H]2O[C@](O)(C[C@@H](O)C[C@H]3O[C@@H]3/C=C/C(=O)O1)C[C@H](O)[C@H]2C(=O)O [Pimaricin],0.794
8,CC(=O)O[C@H]1CC[C@@]2(C)C(=CC[C@@H]3[C@@H]2CC[C@]2(C)C(c4cccnc4)=CC[C@@H]32)C1 [Abiraterone Acetate],0.57
9,O=C(O)COCCN1CCN(C(c2ccccc2)c2ccc(Cl)cc2)CC1 (stereo not given) [Cetirizine 2hydrochloride],1.36
10,CC(=O)c1c(C)c2cnc(Nc3ccc(N4CCNCC4)cn3)nc2n(C2CCCC2)c1=O [Palbociclib],0.728
11,CC(C)C[C@@H](NC(=O)[C@H](C)NC(=O)CNC(=O)[C@@H](NC=O)C(C)C)C(=O)N[C@@H](C)C(=O)N[C@@H](C(=O)N[C@H](C(=O)N[C@H](C(=O)N[C@@H](Cc1c[nH]c2ccccc12)C(=O)N[C@H](CC(C)C)C(=O)N[C@@H](Cc1c[nH]c2ccccc12)C(=O)N[C@H](CC(C)C)C(=O)N[C@@H](Cc1c[nH]c2ccccc12)C(=O)N[C@H](CC(C)C)C(=O)N[C@@H](Cc1c[nH]c2ccccc12)C(=O)NCCO)C(C)C)C(C)C)C(C)C [Gramicidin] (For-VGA[dL]A[dV]VVW[dL]W[dL]W[dL]W-NHCH2CH2OH),4.45
12,CN1CC(=O)N2[C@H](c3ccc4c(c3)OCO4)c3[nH]c4ccccc4c3C[C@@H]2C1=O [Cialis],1.16
13,CN1CCN(CCCN2c3ccccc3Sc3ccc(C(F)(F)F)cc32)CC1 [Trifluoperazine 2hydrochloride],1.96
14,CN(Cc1ccc(C(C)(C)C)cc1)Cc1cccc2ccccc12 [Butenafine hydrochloride],1.04
15,CC1=C(/C=C/C(C)=C/C=C/C(C)=C/C(=O)O)C(C)(C)CCC1 [Tretinoin],0.923
16,O=C(NC1CCN(CCCCC2(C(=O)NCC(F)(F)F)c3ccccc3-c3ccccc32)CC1)c1ccccc1-c1ccc(C(F)(F)F)cc1 [Lomitapide Mesylate],1.15
17,N=C(N)N [Guanidine hydrochloride],0.806
18,CC[C@@H]1C(=O)OC[C@@H]1Cc1cncn1C [(+)-Pilocarpine hydrochloride],0.838
19,CCc1cc(C(N)=S)ccn1 [Ethinamide],1.46
20,CN(C)CC(c1ccc(O)cc1)C1(O)CCCCC1 (stereo not given) [Desvenlafaxine],0.888

row,SMILES,AQP5-HiBiT luminescence
1,C[C@@H]1O[C@@H]1P(=O)(O)O [Fosfomycin calcium],0.744
2,CCOC(=O)[C@H](CCc1ccccc1)N[C@@H](C)C(=O)N1[C@H](C(=O)O)C[C@@H]2CCC[C@@H]21 [Ramipril],0.898
3,Cn1c(=O)cc(N2CCC[C@@H](N)C2)n(Cc2ccccc2C#N)c1=O [Alogliptin Benzoate],1.01
4,Cc1nccn1CC1CCc2c(c3ccccc3n2C)C1=O (stereo not given) [Ondansetron hydrochloride],0.866
5,NS(=O)(=O)c1cc(C(=O)O)c(NCc2ccco2)cc1Cl [Furosemide],0.976
6,CN(C)CCc1c[nH]c2ccc(Cn3cncn3)cc12 [Rizatriptan benzoate],0.597
7,Cc1cc2c(s1)Nc1ccccc1N=C2N1CCN(C)CC1 [Olanzapine],1.46
8,N=C(N)NC(=O)Cc1c(Cl)cccc1Cl [Guanfacine hydrochloride],0.987
9,N=C(N)N/N=C/c1c(Cl)cccc1Cl [Guanabenz Acetate],1.03
10,COc1cc(C)c(/C=C/C(C)=C/C=C/C(C)=C/C(=O)O)c(C)c1C [Acitretin],0.916
11,CC(=O)c1ccc(S(=O)(=O)NC(=O)NC2CCCCC2)cc1 [Acetohexamide],0.835
12,CN1CCCC(n2nc(Cc3ccc(Cl)cc3)c3ccccc3c2=O)CC1 (stereo not given) [Azelastine hydrochloride],1.17
13,COC(=O)[C@H]1[C@H]2C[C@@H]3c4[nH]c5cc(OC)ccc5c4CCN3C[C@H]2C[C@@H](OC(=O)c2cc(OC)c(OC)c(OC)c2)[C@@H]1OC [Reserpine],1.91
14,CN1C(=O)OC(C)(C)C1=O [Trimethadione],0.581
15,Cc1cn([C@@H]2C[C@@H](O)[C@H](CO)O2)c(=O)[nH]c1=O [Telbivudine],1.08
16,COc1ccc(Cl)cc1C(=O)NCCc1ccc(S(=O)(=O)NC(=O)NC2CCCCC2)cc1 [Glyburide],0.888
17,C[C@H](CCC(=O)O)[C@H]1CC[C@H]2[C@@H]3CC[C@@H]4C[C@H](O)CC[C@]4(C)[C@H]3CC[C@]12C [Lithocholic acid],0.966
18,O=C1C(O)=C([C@H]2CC[C@H](c3ccc(Cl)cc3)CC2)C(=O)c2ccccc21 [Atovaquone],0.661
19,NCCCCCC(=O)O [6-Aminocaproic acid],0.86
20,CO[C@H]1/C=C/O[C@@]2(C)Oc3c(C)c(O)c4c(O)c(c5c(nc6cc(C)ccn65)c4c3C2=O)NC(=O)/C(C)=C\C=C\[C@H](C)[C@H](O)[C@@H](C)[C@@H](O)[C@@H](C)[C@H](OC(C)=O)[C@@H]1C [Rifaximin],1.03
